Measured values taken from PubChem BioAssay (NCI).
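Interpolation was linear, between the two tested concentrations surrounding the appropriate level; five concentrations were tested over 48 hours in 96-well plates. GI50 marks 50% less growth. At the TGI there is no net growth.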

Tested on: NCI-H322M lung
Experiment: NCI anticancer screen, dose series, 48 h

Row | SMILES | GI50 | TGI
1 | C#C[C@]1(O)CC[C@H]2[C@@H]3CC=C4c5sc(Nc6cc(Cl)ccc6OC)nc5CC[C@]4(C)[C@H]3CC[C@@]21C | 6.05 µM | > 100 µM
2 | O=C(Nc1cccc(-c2nc(-c3ccc(NC(=O)c4cccs4)cc3Cl)no2)c1)Nc1ccc(NC(=O)C2CC2)c(C(F)(F)F)c1 | 0.318 µM | 1.79 µM
3 | CCC1=Cc2c(OC)cccc2OC12C=Cc1c(OC)cccc1O2 (stereo not given) | 3.97 µM | > 100 µM
4 | Cc1ccc(-c2csc(N/N=C/c3nc4ccccc4n3C3CC3)n2)cc1 | 6.47 µM | > 100 µM
5 | Nc1nc(-c2cccc([N+](=O)[O-])c2)c(N=Nc2ccc(Br)cc2)s1 | 14 µM | 40.9 µM
